The whole screen tested about 310,000 compounds, of which about 14,000 (4.5%) showed an effect of 50% or more. Effects have a minus sign here. Some of the results follow.
Target: human ether-à-go-go-related gene (hERG) potassium channel (human, UniProt Q12809)
Experiment: primary screen, population patch clamp on CHO cells stably expressing hERG
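Further: peak tail current of the secondary pulse compared with the same well before compound.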

human ether-à-go-go-related gene (hERG) potassium channel, sequence (Q12809 whole entry, looked up): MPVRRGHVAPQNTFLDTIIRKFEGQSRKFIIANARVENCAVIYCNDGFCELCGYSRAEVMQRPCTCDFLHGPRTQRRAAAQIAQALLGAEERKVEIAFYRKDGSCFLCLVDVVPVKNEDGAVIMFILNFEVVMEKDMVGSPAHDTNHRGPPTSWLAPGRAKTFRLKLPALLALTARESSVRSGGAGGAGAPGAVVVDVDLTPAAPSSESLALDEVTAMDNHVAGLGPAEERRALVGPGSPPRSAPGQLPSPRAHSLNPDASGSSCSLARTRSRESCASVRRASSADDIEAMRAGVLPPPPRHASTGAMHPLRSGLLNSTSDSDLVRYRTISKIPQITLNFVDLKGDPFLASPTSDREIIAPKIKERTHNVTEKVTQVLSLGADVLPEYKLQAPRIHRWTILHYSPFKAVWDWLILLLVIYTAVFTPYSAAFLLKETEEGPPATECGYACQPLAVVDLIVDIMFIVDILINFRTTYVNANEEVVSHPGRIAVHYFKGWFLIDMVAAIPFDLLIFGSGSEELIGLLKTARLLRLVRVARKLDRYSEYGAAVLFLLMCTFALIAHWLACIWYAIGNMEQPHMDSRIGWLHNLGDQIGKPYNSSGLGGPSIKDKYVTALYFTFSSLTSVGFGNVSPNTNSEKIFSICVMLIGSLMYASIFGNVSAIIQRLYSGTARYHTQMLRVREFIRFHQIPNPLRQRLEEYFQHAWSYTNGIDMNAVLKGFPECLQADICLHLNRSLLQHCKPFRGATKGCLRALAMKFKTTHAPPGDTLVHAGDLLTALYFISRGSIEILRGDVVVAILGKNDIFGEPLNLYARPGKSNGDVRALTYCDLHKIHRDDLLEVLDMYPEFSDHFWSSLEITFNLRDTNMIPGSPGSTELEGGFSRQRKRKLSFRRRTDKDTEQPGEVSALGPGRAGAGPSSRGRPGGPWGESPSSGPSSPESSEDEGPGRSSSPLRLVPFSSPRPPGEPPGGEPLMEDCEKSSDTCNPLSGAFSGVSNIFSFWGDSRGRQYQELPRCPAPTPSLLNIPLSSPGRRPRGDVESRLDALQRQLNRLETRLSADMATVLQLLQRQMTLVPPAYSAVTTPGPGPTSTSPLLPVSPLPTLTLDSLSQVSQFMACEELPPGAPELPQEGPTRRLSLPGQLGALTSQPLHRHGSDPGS

| SMILES | hERG current change (%, negative = inhibition) at 10uM [%] |
| --- | --- |
| COc1ccc(Cl)cc1NC(=O)CN1CCC(n2nnc3ccccc32)CC1 | -10.4 |
| COc1ccc(CNC(=O)Cn2cccc2C(=O)c2ccccc2C)cc1 | 16 |
| CC(=NCCc1ccccc1)C1=C(O)CSC1=O | -2.49 |
| O/N=C/c1ccc(OCC(O)COc2ccc(/C=N/O)cc2)cc1 | -41.2 |
| COc1ccc(N2CCN(C(CNS(C)(=O)=O)c3ccco3)CC2)cc1 (stereo not shown) | -7.42 |
| O=Cc1cccc(Oc2ncccn2)c1 | 8.87 |
| O=C(Nc1ccn(Cc2ccccc2)n1)c1ccc2c(c1)OCO2 | -3.08 |
| Nc1c(C(=O)NCCc2ccccc2)sc2nc(N3CCOCC3)c3c(c12)CCCC3 | 9.32 |
| Cc1ccccc1NS(=O)(=O)c1cccc2nsnc12 | 19.4 |
| O=C1c2ccccc2C(=O)N1CNc1ccccc1 | 18.7 |
| Cc1sc2ncnc(N[C@@H](Cc3ccccc3)C(=O)O)c2c1C | 14 |
| Clc1ccccc1Cn1nc(-c2ccccc2)nc1-c1ccccc1 | -0.912 |
| NC(=O)c1ccc(N=C2C(=O)Nc3ccc([N+](=O)[O-])cc32)cc1 | 18.6 |
| Cc1ccccc1CSCCNC(=O)Nc1ccccc1 | 1.64 |
| CCCNC(=O)N1C2CCC1CC(O)(c1cccnc1)C2 (stereo not shown) | -1.82 |
| COc1ccc(Cl)cc1NC(=O)c1ccc2c(SCC(=O)O)c3c(nc2c1)CCCC3 | 34.5 |
| Cc1cc(NC(=O)CSc2nc(-c3cccnc3)ccc2C#N)no1 | -2.99 |
| O=C(O)c1ccc(-c2noc(-c3ccc(F)cc3)n2)cc1 | 14.3 |
| O=C(NN1C(=O)c2ccccc2C1=O)C1C2CCCCC21 (stereo not shown) | 7.41 |
| CC(=O)Nc1ccc(SCC(=O)O)cc1 | 12.7 |

| SMILES | hERG current change (%, negative = inhibition) at 10uM [%] |
| --- | --- |
| COc1ccc(-n2cc(-c3ccc(OC)c(OC)c3)[nH]c2=S)cc1 | 6.1 |
| COc1ccc2c(C)nc(N/C(N)=N/S(=O)(=O)c3ccc(C)cc3)nc2c1 | 3.1 |
| O=C(NCC1CCCO1)C(=O)c1c[nH]c2ccccc12 (stereo not shown) | 0.898 |
| N=C1C(c2nc3ccccc3s2)=C(O)CN1NC(=O)c1ccccc1[N+](=O)[O-] | 13.3 |
| COc1ccccc1NC(=O)N1CCCC1C(=O)Nc1nnc(C(C)C)s1 (stereo not shown) | -7.02 |
| CCCCc1c(O)nc(SCC(=O)c2ccccc2)n(-c2ccccc2OC)c1=O | 9.63 |
| COc1ccc(NS(=O)(=O)c2cc(NC(=O)c3ccc(=O)[nH]n3)ccc2N2CCOCC2)cc1 | -23.2 |
| Cc1ccc(-c2ccc(=O)n(CC(=O)NCc3ccco3)n2)cc1 | -10 |
| COc1ccc(C(=O)C2CCCN(Cc3nc4ccccc4nc3C)C2)cc1OC (stereo not shown) | -84.9 |
| O=C(Nc1ccccc1)C1=C(O)CC(c2ccco2)CC1=Nc1ccccc1 (stereo not shown) | 8.82 |
| COCCn1c(Cc2ccccc2)nnc1SCC(=O)NC(C)C | -2.94 |
| CC(c1ccco1)N(C(=O)c1ccccc1F)c1ccccn1 (stereo not shown) | 10.1 |
| CS(=O)(=O)N(CC(=O)N1CCCCCC1)c1cc(Cl)ccc1Cl | -2.13 |
| COc1ccc(C(=O)c2cnc[nH]2)cc1 | 13.7 |
| COC(=O)c1ccc(Cl)cc1N(Cc1c(F)cccc1Cl)S(C)(=O)=O | -19.8 |
| CCOC(=O)c1sc(NS(=O)(=O)c2ccc(C)cc2)nc1C | -2.14 |
| COc1cc2c(cc1OC)C(C)N(C(=O)C(NC(=O)c1ccccc1)C(C)C)CC2 (stereo not shown) | 7.1 |
| CN(Cc1ccccc1)C1CC(=O)N(c2ccc(C(=O)O)cc2)C1=O (stereo not shown) | 3.13 |
| CCOc1ccc(C2C(C(=O)c3cccs3)=C(O)C(=O)N2CCN2CCOCC2)cc1 (stereo not shown) | -1.52 |
| Cc1cc(CNC(=O)[C@H](C)[C@@H]2C[C@@]2(C)[C@@H](NC(=O)OCc2ccccc2)c2ccccc2)nn1C | -22.5 |

| SMILES | hERG current change (%, negative = inhibition) at 10uM [%] |
| --- | --- |
| O=C(O)c1ccc(N/N=C/c2cc(Br)cs2)cc1 | 24.3 |
| Cc1nc(=S)n(-c2ccccc2)[nH]1 | 22.9 |
| CCOC(=O)c1c(NC(=O)C2CCCO2)sc(C)c1C (stereo not shown) | 4.6 |
| C[C@H](NC(=O)c1cc2cc(Cl)ccc2n1C)C(=O)N[C@@H](Cc1ccccc1)C(=O)O | 8.99 |
| CCCc1nn2c(=O)cc(O)nc2s1 | 14.2 |
| CNC(=O)c1cccn1-c1ccsc1C(=O)OC | 7.33 |
| COc1cccc(N2CCN(C(=O)c3cc(C)oc3C)CC2)c1 | 6.8 |
| Cc1ccc(N2C(=O)/C(=C\c3ccc(C(C)C)cc3)N=C2SC2CCOC2=O)cc1 (stereo not shown) | 14.2 |
| CCn1nc(NC(=O)c2ccccc2)c2cc3cccc(C)c3nc21 | 11.9 |
| COc1ccc(OC)c(NC(=O)c2ccc(CSc3nnc(C)s3)cc2)c1 | 3.32 |
| O=C(c1ccccc1[N+](=O)[O-])N1CCc2ccccc2C1 | 9.51 |
| O=c1c2ccccc2c(C=Nc2ccccc2O)c(O)n1-c1nccs1 | 3.45 |
| O=C(COc1ccccc1)OCc1cc(-c2ccco2)on1 | 5.99 |
| O=C(Cc1ccccc1)N1CCN(c2ccccc2F)CC1 | 18.1 |
| C=CCOC(=O)C1=C(C)OC(N)=C(C#N)[C@@]12C(=O)N(CC(N)=O)c1ccccc12 | -9.98 |
| O=[N+]([O-])c1ccc(Nc2nc(Cl)nc(NCCO)n2)cc1 | 3.63 |
| CCn1nc(C)c(Br)c1-c1nc(CS(=O)(=O)c2ccsc2)no1 | -22.6 |
| O=C(NCc1cccnc1)c1cc(-c2ccc(Cl)cc2)oc1C(F)(F)F | -25 |

Source: PMC4336329 (PLoS ONE, 2015)
